Measured values reported in patent US12497642B2, “Incorporation of unnatural nucleotides and methods of use in vivo thereof” (THE SCRIPPS RESEARCH INSTITUTE, priority 2017, dated 2025).
At least one structure is not confirmed: it was looked up by name or label, or the drawing left a doubt. Some entries share one result that the patent states for a list of compounds.

Key:
[1] = test system: semi-synthetic organism (SSO) (strain YZ3); assay: Replication and UBP retention in vivo in the semi-synthetic organism (streptavidin biotin shift, PAGE), Example 1; assay type: cell-based, Escherichia coli; conditions: dTPT3TP 25 μM; for UBP retention: sequence context 1 (AXT, TK1); for UBP retention (%): Table 5
Procedure: All bacteria were cultured in 100 μL of liquid 2×YT media (casein peptone 16 g/L, yeast extract 10 g/L, NaCl 5 g/L) supplemented with potassium phosphate (50 mM, pH 7) in 96-well microwell plates. When noted, antibiotics were used at the following concentrations: chloramphenicol, 5 μg/mL; ampicillin, 100 μg/mL. Cell growth, indicated as OD600, was measured using a Perkin Elmer EnVision 2103 Multilabel Reader with a 590/20 nm filter. Unless otherwise stated, molecular biology reagents were purchased from New England Biolabs (Ipswich, MA) and were used according to the manufacturer's protocols. As necessary, purification of nucleic acids was accomplished by micro-elution columns (Zymo Research Corp; Irvine, CA). All natural oligonucleotides were purchased from IDT (San Diego, CA), and oligonucleotides containing dNaM were synthesized by Biosearch Technologies (Petaluma, CA) with purification by reverse phase cartridge. Unnatural nucleotide triphosphates were prepared, and confirmed by MALDI-TOF and UV/Vis.
Plasmids containing the dNaM-dTPT3 UBP were prepared and used to transform the semi-synthetic organism (SSO). To create a template for in vivo replication assays, Golden Gate assembly was used to construct a derivative of the pUC19 plasmid in which a single dNaM-dTPT3 UBP was embedded within the TK1 sequence ([…]; […]), a context within which the UBP is well replicated in the SSO. Plasmids were then used to transform the SSO (strain YZ3). Following transformation, the SSO was allowed to recover at 37° C. for 1 h in media containing dNaMTP (125 μM) and dTPT3TP (25 μM). Cells were pelleted by centrifugation, resuspended in fresh media lacking unnatural triphosphates, split into 100-μL aliquots and then used to inoculate cultures containing different pairs of unnatural triphosphates at the specified concentrations. When the cell density reached an OD600 of ˜0.7, cells were pelleted and plasmids were recovered and PCR amplified with d5SICSTP and a biotinylated analog of dNaMTP, and UBP retention was determined by comparing the intensity of the streptavidin shifted and unshifted bands via PAGE.

[2] = biological target: T1, Klenow fragment of E. coli DNA polymerase I (Escherichia coli, UniProt P00582); assay: Steady-state kinetic assay of unnatural triphosphate insertion; assay type: biochemical; conditions: insertion of dXTP opposite dY = dTPT3 in template
T1 construct: the Klenow fragment of E. coli DNA polymerase I

[3] = sequence context 1 (AXT), dNaMTP or dCNMOTP 125 μM

T1 sequence (P00582 324-928): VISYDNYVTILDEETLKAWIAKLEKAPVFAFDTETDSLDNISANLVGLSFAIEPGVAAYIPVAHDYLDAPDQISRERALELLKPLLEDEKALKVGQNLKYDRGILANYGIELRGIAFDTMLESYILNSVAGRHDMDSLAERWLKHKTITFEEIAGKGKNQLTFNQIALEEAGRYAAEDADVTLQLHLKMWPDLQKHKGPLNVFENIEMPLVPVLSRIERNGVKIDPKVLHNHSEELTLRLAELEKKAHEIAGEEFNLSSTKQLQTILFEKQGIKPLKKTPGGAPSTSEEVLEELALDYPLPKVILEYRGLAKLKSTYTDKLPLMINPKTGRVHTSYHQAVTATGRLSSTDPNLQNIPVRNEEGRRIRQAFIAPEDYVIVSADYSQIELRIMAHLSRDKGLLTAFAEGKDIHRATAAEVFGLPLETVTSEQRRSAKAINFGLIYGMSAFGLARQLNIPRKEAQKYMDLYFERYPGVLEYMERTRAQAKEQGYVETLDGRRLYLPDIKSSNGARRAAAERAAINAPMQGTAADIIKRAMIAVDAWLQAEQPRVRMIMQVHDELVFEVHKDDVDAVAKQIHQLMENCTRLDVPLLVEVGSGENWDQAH

Compound | UBP retention ([1]; dNaMTP analog 10 μM) | UBP retention ([1]; dNaMTP analog 125 μM) | also measured
COc1ccccc1C1CC(O)C(COP(=O)(O)OP(=O)(O)OP(=O)(O)O)O1 (stereo not shown) [d2OMeTP] | 20-40% | 50-90% | 
COc1cc(C)c(F)cc1C1CC(O)C(COP(=O)(O)OP(=O)(O)OP(=O)(O)O)O1 (stereo not shown) [d5FMTP] | > 80% | > 90% | 
Cc1cc(C)nc(C2CC(O)C(COP(=O)(O)OP(=O)(O)OP(=O)(O)O)O2)c1 (stereo not shown) [d35DMPyTP] |  | 20-50% | 
COc1cc(C#N)ccc1C1CC(O)C(COP(=O)(O)OP(=O)(O)OP(=O)(O)O)O1 (stereo not shown) [dCNMOTP] | > 80% | > 90% | UBP retention (%) [1, 3]: > 99%; UBP retention (%) ([1]; sequence context 2 (AXA), dNaMTP or dCNMOTP 25 μM): > 99%; UBP retention (%) ([1]; sequence context 2 (AXA), dNaMTP or dCNMOTP 125 μM): > 99%
COc1cc(Cl)ccc1C1CC(O)C(COP(=O)(O)OP(=O)(O)OP(=O)(O)O)O1 (stereo not shown) [dClMOTP] | > 80% | > 90% | 
COc1ccc(C2CC(O)C(COP(=O)(O)OP(=O)(O)OP(=O)(O)O)O2)c(OC)c1 (stereo not shown) [dDMOTP] |  | > 90% | 
C#Cc1ccc(C2CC(O)C(COP(=O)(O)OP(=O)(O)OP(=O)(O)O)O2)c(OC)c1 (stereo not shown) [dEMOTP] |  | 20-50% | 
COc1cc(OC)c(C2CC(O)C(COP(=O)(O)OP(=O)(O)OP(=O)(O)O)O2)cc1F (stereo not shown) [dFDMOTP] | 20-40% | > 90% | 
C#Cc1cc(OC)c(C2CC(O)C(COP(=O)(O)OP(=O)(O)OP(=O)(O)O)O2)cc1F (stereo not shown) [dFEMOTP] | 40-80% | > 90% | 
COc1cc(I)c(F)cc1C1CC(O)C(COP(=O)(O)OP(=O)(O)OP(=O)(O)O)O1 (stereo not shown) [dFIMOTP] | 40-80% | > 90% | 
COc1cc(I)ccc1C1CC(O)C(COP(=O)(O)OP(=O)(O)OP(=O)(O)O)O1 (stereo not shown) [dIMOTP] | 40-80% | > 90% | 
C#Cc1cc(OC)c(C2CC(O)C(COP(=O)(O)OP(=O)(O)OP(=O)(O)O)O2)cc1OC (stereo not shown) [dMEMOTP] |  | 50-90% | 
COc1cc(C2CC(O)C(COP(=O)(O)OP(=O)(O)OP(=O)(O)O)O2)c(OC)cc1I (stereo not shown) [dMIMOTP] |  | > 90% | 
COc1cc(C)ccc1C1CC(O)C(COP(=O)(O)OP(=O)(O)OP(=O)(O)O)O1 (stereo not shown) [dMMO2TP] | > 80% | > 90% | 
COc1cc2ccccc2cc1[C@H]1C[C@H](O)[C@@H](COP(=O)(O)OP(=O)(O)OP(=O)(O)O)O1 [dNaMTP, reference compound] | 40-80% | > 90% | kcat/Km (efficiency, second order rate constant) [2]: 2.17e+06 M⁻¹ s⁻¹; UBP retention (%) [1, 3]: > 99%
COc1cc(-c2ccncc2)ccc1C1CC(O)C(COP(=O)(O)OP(=O)(O)OP(=O)(O)O)O1 (stereo not shown) [dPyMO2TP] |  | 20-50% | 
COc1nc(C)ccc1C1CC(O)C(COP(=O)(O)OP(=O)(O)OP(=O)(O)O)O1 (stereo not shown) [dTOK581TP] |  | 20-50% | 
CSc1nc(Br)ccc1C1CC(O)C(COP(=O)(O)OP(=O)(O)OP(=O)(O)O)O1 (stereo not shown) [dTOK587TP] |  | 20-50% | 
C=Cc1ccc([C@H]2C[C@H](O)[C@@H](COP(=O)(O)OP(=O)(O)OP(=O)(O)O)O2)c(OC)c1 [dVMOTP] | 20-40% | 50-90% | 
COc1cc(N=[N+]=[N-])ccc1C1CC(O)C(COP(=O)(O)OP(=O)(O)OP(=O)(O)O)O1 (stereo not shown) [dZMOTP] | 20-40% | > 90% | 
